# From the BET-seq Pho4 binding data (Le et al. 2018)
# The list shows a part of the results. The energies were worked out here from pooled read counts, against the library average; single values are noisy.
# Molecular target: T1, Pho4 (S. cerevisiae) (UniProt P07270)
# T1 sequence: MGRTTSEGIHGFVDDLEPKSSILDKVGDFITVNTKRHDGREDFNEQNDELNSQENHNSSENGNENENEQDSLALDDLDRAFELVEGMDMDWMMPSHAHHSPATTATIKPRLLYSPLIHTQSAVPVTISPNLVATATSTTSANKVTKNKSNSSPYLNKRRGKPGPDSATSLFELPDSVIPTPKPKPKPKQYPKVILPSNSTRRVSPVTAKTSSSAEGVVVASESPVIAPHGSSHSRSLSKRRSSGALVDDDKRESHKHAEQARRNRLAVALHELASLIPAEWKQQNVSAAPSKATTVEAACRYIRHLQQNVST
# Assay: relative binding free energy (BET-seq); higher = weaker binding
# Conditions: reference: library average
row,Sequence,relative binding free energy [kcal/mol]
1,TAGGACACGTGATAAG,0.15
2,TATGCCACGTGTGAAG,-0.04
3,GATGGCACGTGTTGAG,-0.02
4,ACTTGCACGTGGATTT,0.1
5,TGACGCACGTGGGGCC,-0.05
6,GGTATCACGTGTGAGG,0.33
7,AGCGTCACGTGTTGGG,-0.01
8,TTATGCACGTGCCGGA,0
9,TGATTCACGTGTGATG,0.28
10,AATGTCACGTGGATGA,0.11
11,GCTAGCACGTGGGGGA,-0.08
12,CGTTGCACGTGAATTT,0.26
13,TTTGACACGTGGTGAG,-0.02
14,GTGGTCACGTGTGGCG,0.09
15,GCTTGCACGTGGCGAG,-0.01
16,GTAGGCACGTGCTGCG,-0.1
17,ATGGACACGTGGCGAT,0.03
18,TGAAGCACGTGAGGCT,0.14
19,TGACGCACGTGGTTTT,-0.2
20,TGGTTCACGTGTGGAA,0.32
21,AGTGTCACGTGATGTT,0.14
22,TCGATCACGTGGTGGG,0.13
23,ATAATCACGTGAGTAA,0.41
24,AAATTCACGTGGTTTC,0.38
25,GGTGCCACGTGTTTCG,0.08

row,Sequence,relative binding free energy [kcal/mol]
1,ATTGCCACGTGTATGG,0
2,GGTGGCACGTGGGTTA,-0.21
3,AGATACACGTGTGGAT,0.13
4,TCTGGCACGTGATTGT,-0.01
5,TGTCGCACGTGCGGCG,-0.06
6,TTATTCACGTGTTTCT,0.24
7,GGAGTCACGTGGGTAA,-0.06
8,ATTTACACGTGGTTTG,0.16
9,TGGGTCACGTGTTTCG,0.21
10,GTTGGCACGTGTGACG,0
11,GGGATCACGTGGACTG,0.32
12,TTCTACACGTGGGTAT,0.11
13,TGAGACACGTGCTTGT,0
14,TGTTTCACGTGTTCGA,0.29
15,GTTGGCACGTGTAGAT,0.08
16,AGGGACACGTGTGTTG,-0.03
17,TCTATCACGTGAGGTG,0.19
18,ACGGACACGTGTTGGT,0.11
19,ATTCTCACGTGGGGGA,0.19
20,GGTGTCACGTGGGTGC,0
21,TTCTGCACGTGTGGCG,0.05
22,GGCATCACGTGGTTAT,0.28
23,ATTCACACGTGGGGTT,-0.05
24,TTACACACGTGAAGGT,0.24
25,TAAGGCACGTGTGGGT,0.02

row,Sequence,relative binding free energy [kcal/mol]
1,TGTACCACGTGGATTT,-0.04
2,ATATTCACGTGCGGTA,0.19
3,GGGCGCACGTGTCGGC,-0.02
4,ATGATCACGTGCGTGG,0.1
5,AATGTCACGTGAGGGG,0.33
6,AGGGGCACGTGGCCGT,-0.2
7,ATGGTCACGTGTTCAT,-0.02
8,TCGCTCACGTGATGTT,0.3
9,TGCGGCACGTGGGGTT,-0.16
10,TAGGGCACGTGTGGTG,-0.06
11,TGGGCCACGTGTCCGG,-0.06
12,GGCTGCACGTGACGTG,0.25
13,GGGTTCACGTGATACT,0.39
14,GTACTCACGTGGAGGT,0.18
15,TGTCGCACGTGGTAGG,-0.02
16,ATTGGCACGTGTCGTT,-0.06
17,CGTGTCACGTGCGGGA,-0.16
18,AATTACACGTGGTTGC,0.16
19,GGTTACACGTGGTTCT,0.14
20,TTGACCACGTGGGCGG,-0.12
21,CAAGGCACGTGTTGAT,0.02
22,GGGTGCACGTGTATTT,0.11
23,AGTGTCACGTGCATGT,-0.14
24,CAGGGCACGTGCTAGG,-0.24
25,CGAAGCACGTGTGGTT,-0.07

row,Sequence,relative binding free energy [kcal/mol]
1,ACTTGCACGTGTGAAG,0.15
2,GGAAGCACGTGTAGTT,-0.21
3,ATGAGCACGTGGCGTA,-0.17
4,AGTATCACGTGAACGT,0.24
5,CAGGACACGTGTTGGA,0.1
6,TTTTTCACGTGCGAGC,0.38
7,ATGTACACGTGTTAGT,0
8,TGTTTCACGTGTGCTC,0.38
9,TATGTCACGTGGTTGA,0.06
10,GTTGTCACGTGGAGAC,0.26
11,TTGGACACGTGGGGAA,-0.02
12,TCTGGCACGTGAGGGC,0.15
13,ATTAGCACGTGTATTG,-0.2
14,GTGTGCACGTGGTTAT,-0.03
15,AGTTGCACGTGGATTT,0.14
16,CATTTCACGTGCTGGG,0.24
17,CGAGACACGTGATGGG,0.04
18,TGGCGCACGTGCTCGG,-0.16
19,ATGTTCACGTGTGGTA,0.23
20,TTTGGCACGTGATCAT,-0.1
21,ATGAGCACGTGTGGCT,-0.03
22,TATGACACGTGGGTTA,-0.04
23,TTGAGCACGTGTTAAT,-0.01
24,TAGAACACGTGTTGTG,0.08
25,TTTACCACGTGGGGTG,-0.32

row,Sequence,relative binding free energy [kcal/mol]
1,AACTGCACGTGGGAGG,-0.15
2,TTGTTCACGTGTGCTT,0.26
3,AAGGGCACGTGCGTAT,-0.09
4,GGTGTCACGTGGCGGC,0.2
5,ACAGGCACGTGTGTAT,0.05
6,TTGGTCACGTGCGGAA,-0.03
7,TTTGGCACGTGTACGA,0
8,GAAGTCACGTGAGTGG,0.24
9,AAGGGCACGTGTGTGC,-0.11
10,CGGGGCACGTGGGCTG,-0.31
11,CGAGGCACGTGGTATA,-0.2
12,TCTAGCACGTGGTCGG,-0.19
13,TCGAGCACGTGGAGGG,-0.06
14,TGAAGCACGTGGTCGT,0.01
15,ATCGGCACGTGTATGG,-0.14
16,GCGGGCACGTGAAGTA,0.24
17,CGTGTCACGTGAGAAG,0.23
18,AGTGGCACGTGAGAGG,0.13
19,CTGATCACGTGTCGGG,0.03
20,TGGGGCACGTGTTGTC,-0.03
21,CGCTTCACGTGGGGGA,0.13
22,AAGTTCACGTGGTGGG,0.29
23,AGAATCACGTGTTTAT,0.07
24,CTATACACGTGGGTGG,-0.13
25,GAAGTCACGTGGCAGT,0.19

row,Sequence,relative binding free energy [kcal/mol]
1,TTTTGCACGTGAATTG,0.23
2,CTTTTCACGTGGAGGC,0.31
3,TTGATCACGTGGGTGG,0.01
4,GTTTGCACGTGCCTGT,0.09
5,GGGGGCACGTGAGACG,0.1
6,AAGTTCACGTGTTCAG,0.33
7,TTTGACACGTGTGTAT,0.04
8,ATCGTCACGTGGTATT,-0.08
9,ATTTACACGTGTGATT,0.1
10,TTGGACACGTGTGGTG,0.08
11,CATATCACGTGTAGTT,0.09
12,AGATGCACGTGGAAAT,0.01
13,TTATTCACGTGAGTAA,0.39
14,TGGTGCACGTGTAAGC,0.06
15,AGGACCACGTGCGTGG,-0.13
16,TATTACACGTGATGCG,0.01
17,ATTTGCACGTGGCGGT,-0.09
18,AACGGCACGTGGTGAG,-0.09
19,AGTGACACGTGTGACG,0.16
20,CTGGACACGTGTTGGG,0.03
21,CGTTTCACGTGTTTGA,0.22
